Measurements taken from the supplement of paper PMC11369174, “Proteome-scale characterisation of motif-based interactome rewiring by disease mutations” (Molecular Systems Biology, 2024).
The list shows a part of the results. Read counts after selection give these values, which scatter widely.

T1: PEX14_Pex14__O75381_16_84
T1 chain: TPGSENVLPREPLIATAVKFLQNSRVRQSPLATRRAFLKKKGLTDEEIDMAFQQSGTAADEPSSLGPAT

T2: PIK3R1_SH3_1_P27986_6_78
T2 chain: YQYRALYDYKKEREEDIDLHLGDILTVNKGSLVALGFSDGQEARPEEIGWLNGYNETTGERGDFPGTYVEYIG

B1: SH2D1A 24-39 mut O60880.D33Y (peptide)
chain: GLDGSYLLRYSESVPG
B2: FOXRED1 136-151 mut Q96CU9.R136W (peptide)
chain: WNINEYLAVVDAPPLD
B3: ERCC1 52-67 wt (peptide)
chain: SAQAAPQTYAEYAISQ
B4: CFTR 426-441 mut P13569.T438A (peptide)
chain: DSLFFSNFSLLGAPVL
B5: TTN 14105-14120 mut Q8WZ42.V14109I (peptide)
chain: TDNPIEARSKYDVPGP
B6: COX15 208-223 mut Q7KZN9.R217W (peptide)
chain: EKSDSHDIPWVSQYRL
B7: FOXL2 248-263 mut P58012.Y258N (peptide)
chain: LAGPAASYGPNTRVQS
B8: MUTYH 315-330 mut Q9UIF7.S321L (peptide)
chain: LASGSLLGSPDVEEAA
B9: SLC22A5 5-20 mut O76082.W14C (peptide)
chain: DEVTAFLGEAGPFQRL
B10: AR 276-291 wt (peptide)
chain: PPAVRPTPAAPLAEAK
B11: FOXL2 248-263 wt (peptide)
chain: LAGPAASYGPYTRVQS
B12: TSEN34 48-63 mut Q9BSV6.R58W (peptide)
chain: LPLLLMPEEAWLLAEI
B13: TTN 14997-15012 mut Q8WZ42.S14999T (peptide)
chain: EPTDPVLAREKLYPPS
B14: ZIC2 212-227 wt (peptide)
chain: NQYGPMNMNMGMNMAA
B15: TTN 14997-15012 mut Q8WZ42.S15012L (peptide)
chain: EPSDPVLAREKLYPPL
B16: ERCC1 52-67 mut P07992.S52L (peptide)
chain: LAQAAPQTYAEYAISQ
B17: LZTR1 633-648 mut Q8N653.P635L (peptide)
chain: QQLPPRTPLDQPVDIG
B18: PTCH1 1176-1191 wt (peptide)
chain: SFFGPYPEVSPANGLN
B19: CNGB1 208-223 wt (peptide)
chain: QARETPSLPTPIPLQP
B20: MUTYH 319-334 mut Q9UIF7.S321L (peptide)
chain: SLLGSPDVEEAAPNTG
B21: IRF6 258-273 mut O14896.Q273R (peptide)
chain: PMPDQEELFGPVSLER
B22: TTN 21091-21106 wt (peptide)
chain: SEPIVARHPFDVPDAP
B23: MSX1 120-135 mut P28360.V120G (peptide)
chain: GGGLLKLPEDALVKAE
B24: KMT2D 2297-2312 wt (peptide)
chain: PSYGPPNLGFVDSPSS
B25: CLCN1 408-423 mut P35523.Q412P (peptide)
chain: PGMGPFMAGELMPREA
B26: ZIC2 212-227 mut O95409.Q213E (peptide)
chain: NEYGPMNMNMGMNMAA
B27: CARD10 339-354 wt (peptide)
chain: LHAVQGELQWAEELRD
B28: TTN 14109-14124 wt (peptide)
chain: VEARSKYDVPGPPLNV
B29: PRKN 341-356 wt (peptide)
chain: LLPEPDQRKVTAEGGN
B30: POMT2 721-736 mut Q9UKY4.G726E (peptide)
chain: HPLAYEMVGPLAQDPQ
B31: SP110 120-135 wt (peptide)
chain: LLEAPTGLAEGSSLHT
B32: TSEN34 48-63 wt (peptide)
chain: LPLLLMPEEARLLAEI
B33: TTN 14109-14124 mut Q8WZ42.V14109I (peptide)
chain: IEARSKYDVPGPPLNV
B34: KMT2D 725-740 wt (peptide)
chain: LLPLPEEPQLAPRSEG
B35: SP110 120-135 mut Q9HB58.G126S (peptide)
chain: LLEAPTSLAEGSSLHT
B36: TTN 15005-15020 wt (peptide)
chain: REKLYPPSPPRWLEVI
B37: ESPN 717-732 mut B1AK53.S719R (peptide)
chain: NGRLVPVPPTTPAPGV
B38: PRKN 341-356 mut O60260.T351P (peptide)
chain: LLPEPDQRKVPAEGGN
B39: PIEZO2 2345-2360 wt (peptide)
chain: TELRAVMDWVWTDTTL
B40: SLC22A5 5-20 mut O76082.R19H (peptide)
chain: DEVTAFLGEWGPFQHL
B41: SLC22A5 5-20 mut O76082.F17L (peptide)
chain: DEVTAFLGEWGPLQRL
B42: POMT2 724-739 mut Q9UKY4.G726E (peptide)
chain: AYEMVGPLAQDPQSPM
B43: FOXL2 252-267 wt (peptide)
chain: AASYGPYTRVQSMALP
B44: TTN 14105-14120 wt (peptide)
chain: TDNPVEARSKYDVPGP
B45: ESPN 713-728 mut B1AK53.S719R (peptide)
chain: QPLLNGRLVPVPPTTP
B46: SLC22A5 4-19 mut O76082.F17L (peptide)
chain: YDEVTAFLGEWGPLQR
B47: FOXL2 252-267 mut P58012.Y258N (peptide)
chain: AASYGPNTRVQSMALP
B48: SLC16A2 432-447 wt (peptide)
chain: APIAFELVGPMQASQA
B49: ZIC2 208-223 mut O95409.Q213E (peptide)
chain: AQLHNEYGPMNMNMGM
B50: CACNA1H 1943-1958 wt (peptide)
chain: PHPRPLQEVEMETYGA
B51: SLC22A5 5-20 wt (peptide)
chain: DEVTAFLGEWGPFQRL
B52: CFTR 426-441 wt (peptide)
chain: DSLFFSNFSLLGTPVL
B53: IRF6 258-273 wt (peptide)
chain: PMPDQEELFGPVSLEQ
B54: SGCA 347-362 wt (peptide)
chain: MAASREVPRPLSTLPM
B55: AR 280-295 wt (peptide)
chain: RPTPAAPLAEAKGSLL
B56: COX15 205-220 mut Q7KZN9.R217W (peptide)
chain: GLEEKSDSHDIPWVSQ
B57: SLC22A5 4-19 wt (peptide)
chain: YDEVTAFLGEWGPFQR

molecular target: PTBP1_RRM_2_P26599_157_285; assay: mean normalised NGS count of phage-displayed peptide after selection on bait (% of reads); baits are purified protein domains named by gene / domain / UniProt id / residues; peptides come from disordered regions of human proteins; higher = stronger enrichment / binding; details: replicate selections in which the peptide was seen: 3

Row | Binder | mean normalised NGS count
1 | B1 | 3.33
2 | B8 | 0.011

Molecular target: T1, PEX14_Pex14__O75381_16_84
Assay: as above
Details: replicate selections in which the peptide was seen: 6

Row | Binder | mean normalised NGS count
3 | B2 | 2.8
4 | B12 | 2.98
5 | B27 | 0.289
6 | B39 | 4.14

molecular target: PPIA_full-length__P62937_1_165, P62937; assay: as above; details: replicate selections in which the peptide was seen: 4
Sequence (P62937 whole entry, looked up): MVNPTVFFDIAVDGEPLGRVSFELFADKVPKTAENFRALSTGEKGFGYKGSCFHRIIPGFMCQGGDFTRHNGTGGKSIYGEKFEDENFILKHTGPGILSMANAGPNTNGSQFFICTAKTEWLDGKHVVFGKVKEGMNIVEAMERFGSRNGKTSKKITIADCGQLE

Row | Binder | mean normalised NGS count
7 | B3 | 0.0479
8 | B16 | 0.513
9 | B26 | 0.02
10 | B44 | 0.029

molecular target: PTBP1_RRM_2_P26599_157_285; assay: as above; details: replicate selections in which the peptide was seen: 6

Row | Binder | mean normalised NGS count
11 | B4 | 14.7
12 | B23 | 0.235
13 | B52 | 3

molecular target: PPIA_full-length__P62937_1_165, P62937; assay: as above; details: replicate selections in which the peptide was seen: 3

Row | Binder | mean normalised NGS count
14 | B5 | 0.0322
15 | B7 | 0.179
16 | B9 | 0.015
17 | B11 | 0.012
18 | B14 | 0.00404
19 | B42 | 0.00687
20 | B48 | 0.00807
21 | B49 | 0.0108
22 | B50 | 0.0582

same assay, conditions: replicate selections in which the peptide was seen: 5

Row | Binder | mean normalised NGS count
23 | B6 | 0.195
24 | B24 | 0.0514
25 | B46 | 0.174

Molecular target: T2, PIK3R1_SH3_1_P27986_6_78
Assay: as above
Details: replicate selections in which the peptide was seen: 4

Row | Binder | mean normalised NGS count
26 | B10 | 0.0138

Same assay, conditions: replicate selections in which the peptide was seen: 2

Row | Binder | mean normalised NGS count
27 | B13 | 0.00275

Same assay, conditions: replicate selections in which the peptide was seen: 6

Row | Binder | mean normalised NGS count
28 | B15 | 0.0141
29 | B36 | 0.0513
30 | B37 | 0.0364

Same assay, conditions: replicate selections in which the peptide was seen: 7

Row | Binder | mean normalised NGS count
31 | B17 | 0.396
32 | B45 | 0.0425

molecular target: PPIA_full-length__P62937_1_165, P62937; assay: as above; details: replicate selections in which the peptide was seen: 6

Row | Binder | mean normalised NGS count
33 | B18 | 0.335
34 | B22 | 1.47
35 | B28 | 8.88
36 | B30 | 5.4
37 | B33 | 4.96
38 | B40 | 35.6
39 | B41 | 2.67
40 | B47 | 0.479
41 | B51 | 4.63
42 | B56 | 1
43 | B57 | 11.7

Molecular target: T2, PIK3R1_SH3_1_P27986_6_78
Assay: as above
Details: replicate selections in which the peptide was seen: 3

Row | Binder | mean normalised NGS count
44 | B19 | 0.0597

molecular target: PTBP1_RRM_2_P26599_157_285; assay: as above; details: replicate selections in which the peptide was seen: 4

Row | Binder | mean normalised NGS count
45 | B20 | 0.0107
46 | B29 | 0.254
47 | B31 | 0.145
48 | B32 | 0.016
49 | B34 | 0.0119
50 | B35 | 0.0753
51 | B38 | 0.0163

molecular target: PPIA_full-length__P62937_1_165, P62937; assay: as above; details: replicate selections in which the peptide was seen: 2

Row | Binder | mean normalised NGS count
52 | B21 | 0.00404
53 | B25 | 0.00468
54 | B43 | 0.0159
55 | B53 | 0.00404

Molecular target: T2, PIK3R1_SH3_1_P27986_6_78
Assay: as above
Details: replicate selections in which the peptide was seen: 9

Row | Binder | mean normalised NGS count
56 | B54 | 23
57 | B55 | 0.131
